Here are results for 31 molecules from PMC9911399, “Two distinct binding modes provide the RNA-binding protein RbFox with extraordinary sequence specificity”.

The labels stand for the following.
T1: RBFOX1 RRM (Homo sapiens, UniProt Q9NWB1 109-208)
T1 sequence: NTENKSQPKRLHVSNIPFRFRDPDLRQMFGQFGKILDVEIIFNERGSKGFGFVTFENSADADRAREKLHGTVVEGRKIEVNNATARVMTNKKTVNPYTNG

B1: GGUUCGG (DNA:RNA)
RNA: GGGAGACCGGAAUUCAGAUUGUCCGGUUCGGUUAAAUCCCGUCGUAGCCACCA
DNA 1: CAATCTGAATTCCGGTCTCCC
DNA 2: TGGTGGCTACGACGGGATT
B2: UUCCCGG (DNA:RNA)
RNA: B1 RNA with G25U, G26U, U27C, U28C
DNA 1: CAATCTGAATTCCGGTCTCCC
DNA 2: TGGTGGCTACGACGGGATT
B3: AAACACA (DNA:RNA)
RNA: GGGAGACCGGAAUUCAGAUUGUCCAAACACAUUAAAUCCCGUCGUAGCCACCA
DNA 1: CAATCTGAATTCCGGTCTCCC
DNA 2: TGGTGGCTACGACGGGATT
B4: CUCUCCG (DNA:RNA)
RNA: B1 RNA with G25C, G26U, U27C, G30C
DNA 1: CAATCTGAATTCCGGTCTCCC
DNA 2: TGGTGGCTACGACGGGATT
B5: CCCUCUG (DNA:RNA)
RNA: B1 RNA with G25C, G26C, U27C, G30U
DNA 1: CAATCTGAATTCCGGTCTCCC
DNA 2: TGGTGGCTACGACGGGATT
B6: CGCACAA (DNA:RNA)
RNA: B1 RNA with G25C, U27C, U28A, G30A, G31A
DNA 1: CAATCTGAATTCCGGTCTCCC
DNA 2: TGGTGGCTACGACGGGATT
B7: ACAGUUC (DNA:RNA)
RNA: B3 RNA with A26C, C28G, A29U, C30U, A31C
DNA 1: CAATCTGAATTCCGGTCTCCC
DNA 2: TGGTGGCTACGACGGGATT
B8: CGAUACC (DNA:RNA)
RNA: B3 RNA with A25C, A26G, C28U, A31C
DNA 1: CAATCTGAATTCCGGTCTCCC
DNA 2: TGGTGGCTACGACGGGATT
B9: AUAUAUG (DNA:RNA)
RNA: B3 RNA with A26U, C28U, C30U, A31G
DNA 1: CAATCTGAATTCCGGTCTCCC
DNA 2: TGGTGGCTACGACGGGATT
B10: CCUGGGA (DNA:RNA)
RNA: B1 RNA with G25C, G26C, U28G, C29G, G31A
DNA 1: CAATCTGAATTCCGGTCTCCC
DNA 2: TGGTGGCTACGACGGGATT
B11: GUUGUGA (DNA:RNA)
RNA: B1 RNA with G26U, U28G, C29U, G31A
DNA 1: CAATCTGAATTCCGGTCTCCC
DNA 2: TGGTGGCTACGACGGGATT
B12: ACCUCUG (DNA:RNA)
RNA: B1 RNA with G25A, G26C, U27C, G30U
DNA 1: CAATCTGAATTCCGGTCTCCC
DNA 2: TGGTGGCTACGACGGGATT
B13: GAAACUC (DNA:RNA)
RNA: B3 RNA with A25G, C28A, A29C, C30U, A31C
DNA 1: CAATCTGAATTCCGGTCTCCC
DNA 2: TGGTGGCTACGACGGGATT
B14: AACUGGG (DNA:RNA)
RNA: B1 RNA with G25A, G26A, U27C, C29G
DNA 1: CAATCTGAATTCCGGTCTCCC
DNA 2: TGGTGGCTACGACGGGATT
B15: GGGCAUU (DNA:RNA)
RNA: B3 RNA with A25G, A26G, A27G, C30U, A31U
DNA 1: CAATCTGAATTCCGGTCTCCC
DNA 2: TGGTGGCTACGACGGGATT
B16: GACCACG (DNA:RNA)
RNA: B3 RNA with A25G, A27C, A31G
DNA 1: CAATCTGAATTCCGGTCTCCC
DNA 2: TGGTGGCTACGACGGGATT
B17: GCCCUCC (DNA:RNA)
RNA: B3 RNA with A25G, A26C, A27C, A29U, A31C
DNA 1: CAATCTGAATTCCGGTCTCCC
DNA 2: TGGTGGCTACGACGGGATT
B18: CGAUCCU (DNA:RNA)
RNA: B1 RNA with G25C, U27A, G30C, G31U
DNA 1: CAATCTGAATTCCGGTCTCCC
DNA 2: TGGTGGCTACGACGGGATT
B19: GCCCAAG (DNA:RNA)
RNA: B3 RNA with A25G, A26C, A27C, C30A, A31G
DNA 1: CAATCTGAATTCCGGTCTCCC
DNA 2: TGGTGGCTACGACGGGATT
B20: ACGGACU (DNA:RNA)
RNA: B3 RNA with A26C, A27G, C28G, A31U
DNA 1: CAATCTGAATTCCGGTCTCCC
DNA 2: TGGTGGCTACGACGGGATT
B21: UUUUAGU (DNA:RNA)
RNA: B1 RNA with G25U, G26U, C29A, G31U
DNA 1: CAATCTGAATTCCGGTCTCCC
DNA 2: TGGTGGCTACGACGGGATT
B22: CGCAAGA (DNA:RNA)
RNA: B3 RNA with A25C, A26G, A27C, C28A, C30G
DNA 1: CAATCTGAATTCCGGTCTCCC
DNA 2: TGGTGGCTACGACGGGATT
B23: CUUCGGC (DNA:RNA)
RNA: B1 RNA with G25C, G26U, U28C, C29G, G31C
DNA 1: CAATCTGAATTCCGGTCTCCC
DNA 2: TGGTGGCTACGACGGGATT
B24: GUAGAGC (DNA:RNA)
RNA: B3 RNA with A25G, A26U, C28G, C30G, A31C
DNA 1: CAATCTGAATTCCGGTCTCCC
DNA 2: TGGTGGCTACGACGGGATT
B25: UCAGAUU (DNA:RNA)
RNA: B3 RNA with A25U, A26C, C28G, C30U, A31U
DNA 1: CAATCTGAATTCCGGTCTCCC
DNA 2: TGGTGGCTACGACGGGATT
B26: UUCACAG (DNA:RNA)
RNA: B1 RNA with G25U, G26U, U27C, U28A, G30A
DNA 1: CAATCTGAATTCCGGTCTCCC
DNA 2: TGGTGGCTACGACGGGATT
B27: CUUUAUU (DNA:RNA)
RNA: B1 RNA with G25C, G26U, C29A, G30U, G31U
DNA 1: CAATCTGAATTCCGGTCTCCC
DNA 2: TGGTGGCTACGACGGGATT
B28: CAUUGCU (DNA:RNA)
RNA: B3 RNA with A25C, A27U, C28U, A29G, A31U
DNA 1: CAATCTGAATTCCGGTCTCCC
DNA 2: TGGTGGCTACGACGGGATT
B29: UUUUUGA (DNA:RNA)
RNA: B1 RNA with G25U, G26U, C29U, G31A
DNA 1: CAATCTGAATTCCGGTCTCCC
DNA 2: TGGTGGCTACGACGGGATT
B30: CGUAGAA (DNA:RNA)
RNA: B1 RNA with G25C, U28A, C29G, G30A, G31A
DNA 1: CAATCTGAATTCCGGTCTCCC
DNA 2: TGGTGGCTACGACGGGATT
B31: GGCUUCG (DNA:RNA)
RNA: B1 RNA with U27C, C29U, G30C
DNA 1: CAATCTGAATTCCGGTCTCCC
DNA 2: TGGTGGCTACGACGGGATT

Residue numbers refer to the chain shown, from its start. The list shows a part of the results.

For the assay, the target named is T1, RBFOX1 RRM. Put plainly: EMSA; HiTS-Eq, 1 nM pool, 10 min; buffer printed only for the single-RNA assays: 10 mM Tris pH 7.5, 150 mM NaCl, 3.4 mM EDTA, 0.001% NP-40, 30 C. Particulars: tags: His6 N-terminal (pET28a); label: 5' 32P. In short, it runs like this: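 Purified RbFox RRM (wild type or mutant) was equilibrated for 10 min in 50 µL with 1 nM of a 5′-radiolabelled pool of RNA with 7 randomized nucleotides, its flanks annealed to DNA oligonucleotides, across increasing protein concentrations. Free RNA was separated by 8% native PAGE, excised, reverse-transcribed, PCR-barcoded and sequenced on an Illumina HiSeq 2500. Relative association constants came from read-count changes of each variant against the control reaction, normalised to the cognate motif.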
(In general: Mobility shift assays separate free from complexed probe on a gel.)
Take B1: the binding signal is 0.0185 KA relative to UGCAUGU.

Consider B2, for which the binding signal was 0.0138 KA relative to UGCAUGU. Next, B3: 0.000568 KA relative to UGCAUGU; B4: 0.0057 KA relative to UGCAUGU; B5: 0.0112 KA relative to UGCAUGU.

B6: the binding signal was 0.00368 KA relative to UGCAUGU. For B7 the value was 0.0064 KA relative to UGCAUGU; for B8, 0.00853 KA relative to UGCAUGU; for B9, 0.00647 KA relative to UGCAUGU.

Regarding B10, the binding signal was 0.0067 KA relative to UGCAUGU.

With B11, the binding signal is 0.0176 KA relative to UGCAUGU. Next, B12: 0.0106 KA relative to UGCAUGU; B13: 0.00499 KA relative to UGCAUGU; B14: 0.00531 KA relative to UGCAUGU. For B15 the value was 0.0157 KA relative to UGCAUGU. Next, B16: 0.00814 KA relative to UGCAUGU; B17: 0.00762 KA relative to UGCAUGU.

Take B18: the binding signal was 0.00738 KA relative to UGCAUGU.

Take B19: the binding signal is 0.00844 KA relative to UGCAUGU. For B20 the value was 0.00462 KA relative to UGCAUGU; for B21, 0.0131 KA relative to UGCAUGU. Next, B22: 0.0122 KA relative to UGCAUGU; B23: 0.0141 KA relative to UGCAUGU; B24: 0.0156 KA relative to UGCAUGU. For B25 the value was 0.00732 KA relative to UGCAUGU. B26: the binding signal is 0.00618 KA relative to UGCAUGU. For B27 the value was 0.00604 KA relative to UGCAUGU; for B28, 0.0103 KA relative to UGCAUGU. For B29 the value was 0.0218 KA relative to UGCAUGU; for B30, 0.00813 KA relative to UGCAUGU. Turning to B31, the binding signal was 0.0137 KA relative to UGCAUGU.
